The results in this text go back to a collection of fitness landscapes (doi:10.1016/j.celrep.2020.107928).

B1: Caulobacter ParB omega fusion; a variant is named by its letters at X, in order, B8GW30 (parent)
chain: MESVVVGEPGMSEGRRGLGRGLSALLGEVDAAPAQAPGEQLGGSREAPIEILQRNPDQPRRTFREEDLEDLSNSIREKGVLQPILVRPSPDTAGEYQIVAGERAWRAAQRAGLKTVPIMVRELDDLAVLEIGIIENVQRADLNVLEEALSYKVLMEKFERTQENIAQTIGKSXSHVANXMRLLXLPDEVQSYLVSGELTAXHARAIAAAADPVALAKQIIEGGLSVRETEALARKAPNLSAGKSKGGRPPRVKDTDTQALESDLSSVLGLDVSIDHRGSTGTLTITYATLEQLDDLCNRLTRGI

Whole data set: some 81,000 sequences, median “one-hybrid fitness for binding parS DNA” near -0.17, cut for the highest 2% near 0.51. Some of the results follow.

The test covers variants of B1. Put plainly: one-hybrid fitness for binding parS DNA (scaled: cognate 1, non-cognate 0); higher = stronger binding. The conditions noted are these: with parS DNA site. A digest of the protocol: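 On M9-minus-histidine containing 0.1 mM IPTG and 5 mM 3-AT, E. coli USO cells with a HIS3 reporter, site 19 bp from the promoter, grew 48 hours at 37°C to select Caulobacter ParB libraries randomised at four specificity codons. Plasmids from before and after were Illumina-sequenced, with three replicate libraries pooled and variants under 10 reads left out. Fitness is the log change in variant-to-wild-type read ratio, rescaled against cognate and non-cognate.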
With YQLE, the “one-hybrid fitness for binding parS DNA” value is at most 0.2. In the case of LGKG, the “one-hybrid fitness for binding parS DNA” value is at most 0.2. As for QQCS, the figure is at most 0.2; as for TNYS, at most 0.2.

As to AHYY, the “one-hybrid fitness for binding parS DNA” value was at most 0.2. As for ERHR, the figure is at most 0.2; as for ARFK, at most 0.2; as for ISQW, at most 0.2. In the case of RNMS it was 0.868; in that of LYKG, at most 0.2. As for QFAK, the figure is at most 0.2; as for RSSQ, at most 0.2.

Take PPDC: the “one-hybrid fitness for binding parS DNA” value is at most 0.2. In the case of PNEP it was at most 0.2; in that of RGKR, at most 0.2; in that of IALC, at most 0.2. In the case of VWDT it was at most 0.2; in that of RCKD, at most 0.2; in that of STGE, at most 0.2. As for ASVW, the figure is at most 0.2; as for CADI, at most 0.2. For the variant WGSS, the “one-hybrid fitness for binding parS DNA” value is at most 0.2. In the case of GIDI it was at most 0.2; in that of KFAR, at most 0.2; in that of HHKC, at most 0.2. As for MWRG, the figure is at most 0.2; as for SNTE, at most 0.2. As for CSGF, the figure is at most 0.2. As for FTTG, the “one-hybrid fitness for binding parS DNA” value is at most 0.2. As for SDTR, the figure is at most 0.2; as for SSDD, at most 0.2; as for SGKY, at most 0.2. In the case of YKTS, the “one-hybrid fitness for binding parS DNA” value is at most 0.2.

Turning to HVMT, the “one-hybrid fitness for binding parS DNA” value was at most 0.2. As for TDKE, the figure is at most 0.2. CTTM: the “one-hybrid fitness for binding parS DNA” value is at most 0.2. In the case of NVAA it was at most 0.2; in that of DLFA, at most 0.2. As for KQSM, the figure is at most 0.2. In the case of ENAS it was at most 0.2; in that of TQET, at most 0.2.

QFAF: the “one-hybrid fitness for binding parS DNA” value was at most 0.2. As for FLEV, the “one-hybrid fitness for binding parS DNA” value is at most 0.2. As for RDTV, the figure is at most 0.2; as for FSPS, at most 0.2; as for VHTG, at most 0.2. In the case of NLQC it was at most 0.2.

GHSF: the “one-hybrid fitness for binding parS DNA” value is at most 0.2. For the variant IEYT, the “one-hybrid fitness for binding parS DNA” value was at most 0.2. Turning to IMVC, the “one-hybrid fitness for binding parS DNA” value is at most 0.2.

QYSI: the “one-hybrid fitness for binding parS DNA” value was at most 0.2.

In the case of YEHV, the “one-hybrid fitness for binding parS DNA” value was at most 0.2.

Consider RCLL, for which the “one-hybrid fitness for binding parS DNA” value is at most 0.2.

On to NHET, for which the “one-hybrid fitness for binding parS DNA” value was at most 0.2. In the case of PRDL it was at most 0.2; in that of TRVF, at most 0.2.

Turning to LLGN, the “one-hybrid fitness for binding parS DNA” value was at most 0.2. Turning to LSHY, the “one-hybrid fitness for binding parS DNA” value is at most 0.2.

SFKW: the “one-hybrid fitness for binding parS DNA” value was at most 0.2. In the case of TGRN, the “one-hybrid fitness for binding parS DNA” value was at most 0.2. As for RTGH, the figure is at most 0.2; as for NQKD, at most 0.2.

Consider WHHC, for which the “one-hybrid fitness for binding parS DNA” value was at most 0.2. As for AKAN, the “one-hybrid fitness for binding parS DNA” value is at most 0.2. In the case of TCHS it was at most 0.2; in that of FGCC, at most 0.2; in that of MKGG, at most 0.2. As for SLSM, the figure is at most 0.2; as for VLMM, at most 0.2; as for PLED, at most 0.2. In the case of QNTL it was at most 0.2. With EQSR, the “one-hybrid fitness for binding parS DNA” value was at most 0.2.

KRCD: the “one-hybrid fitness for binding parS DNA” value is at most 0.2. As for SCYL, the figure is at most 0.2; as for DADY, at most 0.2; as for KFNT, at most 0.2. As for WMGC, the “one-hybrid fitness for binding parS DNA” value is at most 0.2. In the case of AHSF it was at most 0.2; in that of QLAH, at most 0.2. As for AFLC, the figure is at most 0.2; as for SHVE, at most 0.2; as for LPDC, at most 0.2. As for SDYK, the figure is at most 0.2; as for IEPG, at most 0.2; as for APYR, at most 0.2. On to QSET, for which the “one-hybrid fitness for binding parS DNA” value is at most 0.2. As for RHVS, the figure is 0.927. As for RQKH, the figure is 0.269.

For PVND, the “one-hybrid fitness for binding parS DNA” value is at most 0.2. In the case of SCVN, the “one-hybrid fitness for binding parS DNA” value was at most 0.2.

Regarding PRTG, the “one-hybrid fitness for binding parS DNA” value was at most 0.2. As for HWLH, the figure is at most 0.2; as for FCYM, at most 0.2; as for IICR, at most 0.2. In the case of WFVS it was at most 0.2. With KSCQ, the “one-hybrid fitness for binding parS DNA” value was at most 0.2.

Consider SNKR, for which the “one-hybrid fitness for binding parS DNA” value was at most 0.2. In the case of AGRP it was at most 0.2; in that of WTVL, at most 0.2.

Take FMKS: the “one-hybrid fitness for binding parS DNA” value is at most 0.2. In the case of SDMA it was at most 0.2.

Consider GEVS, for which the “one-hybrid fitness for binding parS DNA” value is at most 0.2. Turning to VHFR, the “one-hybrid fitness for binding parS DNA” value was at most 0.2. In the case of PDCE it was at most 0.2; in that of QLEC, at most 0.2. In the case of RKEL it was at most 0.2; in that of EPDT, at most 0.2; in that of VTAW, at most 0.2. As for LGTN, the figure is at most 0.2. GAIS: the “one-hybrid fitness for binding parS DNA” value is at most 0.2.

As to WGKT, the “one-hybrid fitness for binding parS DNA” value was at most 0.2. As for CHPW, the figure is at most 0.2; as for AYFI, at most 0.2; as for ADPK, at most 0.2. As for EMVP, the “one-hybrid fitness for binding parS DNA” value is at most 0.2. As for NKTT, the figure is at most 0.2; as for KTDF, at most 0.2.

For LNVS, the “one-hybrid fitness for binding parS DNA” value was at most 0.2. CTRN: the “one-hybrid fitness for binding parS DNA” value is at most 0.2. SKSA: the “one-hybrid fitness for binding parS DNA” value is at most 0.2. As to TLCQ, the “one-hybrid fitness for binding parS DNA” value was at most 0.2.

Turning to HRWY, the “one-hybrid fitness for binding parS DNA” value is at most 0.2. As for CRCD, the figure is at most 0.2; as for QPRA, at most 0.2. In the case of CCGC it was at most 0.2. With LVNG, the “one-hybrid fitness for binding parS DNA” value was at most 0.2. As for WLQM, the figure is 0.238; as for NNLK, at most 0.2; as for DALM, at most 0.2. In the case of HWHS it was at most 0.2; in that of RQVF, at most 0.2. In the case of MTVT it was at most 0.2. As to VTTS, the “one-hybrid fitness for binding parS DNA” value is at most 0.2. In the case of NFGG it was at most 0.2; in that of HWGS, at most 0.2. Regarding DCRG, the “one-hybrid fitness for binding parS DNA” value is at most 0.2. In the case of WTTT it was at most 0.2; in that of QMSQ, at most 0.2; in that of ITCS, at most 0.2.

On to RRQD, for which the “one-hybrid fitness for binding parS DNA” value was at most 0.2. With RCTP, the “one-hybrid fitness for binding parS DNA” value is at most 0.2. On to TCCT, for which the “one-hybrid fitness for binding parS DNA” value was at most 0.2. In the case of QLNR it was at most 0.2; in that of LNCV, at most 0.2. As for DRAV, the figure is at most 0.2; as for VCVF, at most 0.2; as for TKPM, at most 0.2. In the case of STHE it was at most 0.2; in that of VKGF, at most 0.2; in that of QLVR, at most 0.2. For the variant FQPR, the “one-hybrid fitness for binding parS DNA” value is at most 0.2. Take RMHT: the “one-hybrid fitness for binding parS DNA” value was found to be 0.946. As for PSNK, the figure is at most 0.2.
